T1: human IL-2Rβ (human, UniProt P14784 27-240, limits assumed)
T1 construct: also called hIL-2Rβ; IL-2 receptor beta
T1 sequence (looked up): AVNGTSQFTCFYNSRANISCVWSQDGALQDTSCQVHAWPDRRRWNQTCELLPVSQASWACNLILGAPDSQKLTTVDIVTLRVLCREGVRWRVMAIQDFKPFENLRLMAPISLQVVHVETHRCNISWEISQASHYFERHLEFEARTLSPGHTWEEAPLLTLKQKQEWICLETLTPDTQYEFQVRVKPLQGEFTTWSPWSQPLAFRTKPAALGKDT

T2: IL-15 signaling receptor on 32D[pRF770+pRF791] cells (human CD122 plus mouse CD132) (human; mouse, UniProt P14784 27-551; P34902 23-369)
T2 sequence (looked up) 1: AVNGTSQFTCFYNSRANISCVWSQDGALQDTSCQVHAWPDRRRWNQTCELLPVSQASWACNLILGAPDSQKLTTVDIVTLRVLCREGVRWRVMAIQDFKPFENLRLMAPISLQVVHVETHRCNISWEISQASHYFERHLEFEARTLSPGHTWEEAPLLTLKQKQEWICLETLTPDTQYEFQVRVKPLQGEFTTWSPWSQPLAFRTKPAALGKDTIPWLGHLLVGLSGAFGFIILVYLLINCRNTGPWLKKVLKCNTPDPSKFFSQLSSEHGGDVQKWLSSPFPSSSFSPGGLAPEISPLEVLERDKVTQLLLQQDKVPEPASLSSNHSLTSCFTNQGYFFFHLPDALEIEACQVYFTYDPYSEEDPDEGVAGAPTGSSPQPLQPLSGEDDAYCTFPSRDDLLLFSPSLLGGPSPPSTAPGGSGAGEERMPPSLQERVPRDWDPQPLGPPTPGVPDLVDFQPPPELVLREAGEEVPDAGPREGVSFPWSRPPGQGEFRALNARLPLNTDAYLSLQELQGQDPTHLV
T2 sequence (looked up) 2: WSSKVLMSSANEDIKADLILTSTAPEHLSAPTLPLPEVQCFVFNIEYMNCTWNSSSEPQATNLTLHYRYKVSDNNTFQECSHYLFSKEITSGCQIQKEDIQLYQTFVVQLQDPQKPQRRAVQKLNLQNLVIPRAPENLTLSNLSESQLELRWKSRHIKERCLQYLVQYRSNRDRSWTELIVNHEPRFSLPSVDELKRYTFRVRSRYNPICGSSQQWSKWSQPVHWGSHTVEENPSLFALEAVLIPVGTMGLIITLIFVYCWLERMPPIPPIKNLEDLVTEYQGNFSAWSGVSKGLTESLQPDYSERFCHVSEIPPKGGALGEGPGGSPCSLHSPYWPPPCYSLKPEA

T3: mouse PD-1 on doxycycline-induced 32D[pRF770+pRF791] cells (mouse, UniProt Q02242 25-288)
T3 sequence (looked up): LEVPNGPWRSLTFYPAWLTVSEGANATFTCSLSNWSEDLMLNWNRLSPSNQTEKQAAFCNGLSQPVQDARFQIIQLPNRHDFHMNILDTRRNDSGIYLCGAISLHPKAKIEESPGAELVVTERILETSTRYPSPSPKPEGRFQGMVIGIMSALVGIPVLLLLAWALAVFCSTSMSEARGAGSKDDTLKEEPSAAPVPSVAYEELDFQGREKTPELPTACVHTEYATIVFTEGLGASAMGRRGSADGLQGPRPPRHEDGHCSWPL

B1: hIL-15 V49S (ligand)
chain: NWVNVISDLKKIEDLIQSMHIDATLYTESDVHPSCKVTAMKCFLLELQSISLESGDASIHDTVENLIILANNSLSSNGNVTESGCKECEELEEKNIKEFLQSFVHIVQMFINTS
notes: not shown: C-terminal linker-8xHis-Avi tag
B2: hIL-15 V49N (ligand)
chain: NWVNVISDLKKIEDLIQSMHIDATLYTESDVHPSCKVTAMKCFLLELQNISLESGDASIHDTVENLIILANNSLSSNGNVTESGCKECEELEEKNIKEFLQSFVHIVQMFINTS
notes: as for B1
B3: hIL-15 V49Q (ligand)
chain: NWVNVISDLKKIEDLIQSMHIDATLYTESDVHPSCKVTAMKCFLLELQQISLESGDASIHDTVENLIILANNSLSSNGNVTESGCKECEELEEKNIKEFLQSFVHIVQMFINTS
notes: as for B1
B4: hIL-15 V49G (ligand)
chain: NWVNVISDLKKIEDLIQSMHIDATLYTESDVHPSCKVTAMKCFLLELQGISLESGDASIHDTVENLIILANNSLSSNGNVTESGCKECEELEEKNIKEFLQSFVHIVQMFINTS
notes: as for B1
B5: hIL-15 V49A (ligand)
chain: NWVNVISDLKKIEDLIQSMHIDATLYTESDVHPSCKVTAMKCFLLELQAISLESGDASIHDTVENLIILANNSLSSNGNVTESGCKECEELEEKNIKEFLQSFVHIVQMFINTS
notes: as for B1
B6: hIL-15 E46G (ligand)
chain: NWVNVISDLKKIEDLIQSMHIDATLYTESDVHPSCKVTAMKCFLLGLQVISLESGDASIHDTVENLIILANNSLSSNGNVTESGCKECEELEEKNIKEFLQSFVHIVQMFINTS
notes: as for B1
B7: hIL-15 Y26R (ligand)
chain: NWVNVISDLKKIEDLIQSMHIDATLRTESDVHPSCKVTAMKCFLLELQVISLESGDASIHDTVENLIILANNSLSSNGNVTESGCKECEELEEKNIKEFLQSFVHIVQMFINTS
notes: as for B1
B8: hIL-15 V49K (ligand)
chain: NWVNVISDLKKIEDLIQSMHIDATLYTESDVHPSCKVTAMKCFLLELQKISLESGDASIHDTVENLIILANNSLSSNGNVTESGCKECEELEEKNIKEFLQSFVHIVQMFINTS
notes: as for B1
B9: hIL-15 Y26H (ligand)
chain: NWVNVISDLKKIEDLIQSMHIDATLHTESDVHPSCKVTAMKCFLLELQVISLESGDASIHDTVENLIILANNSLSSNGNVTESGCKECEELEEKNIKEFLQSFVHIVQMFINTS
notes: as for B1
B10: hIL-15 Y26K (ligand)
chain: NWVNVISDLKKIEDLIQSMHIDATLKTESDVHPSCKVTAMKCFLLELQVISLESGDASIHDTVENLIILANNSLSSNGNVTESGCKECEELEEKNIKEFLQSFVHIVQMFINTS
notes: as for B1
B11: hIL-15 V49H (ligand)
chain: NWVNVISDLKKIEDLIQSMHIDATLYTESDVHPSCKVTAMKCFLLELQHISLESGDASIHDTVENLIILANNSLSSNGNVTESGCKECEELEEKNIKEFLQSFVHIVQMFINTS
notes: as for B1
B12: hIL-15 V49E (ligand)
chain: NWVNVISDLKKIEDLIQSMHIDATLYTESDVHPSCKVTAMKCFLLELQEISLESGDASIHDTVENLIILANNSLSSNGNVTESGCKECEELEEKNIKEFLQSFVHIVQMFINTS
notes: as for B1
B13: xmPD1-hIL15Rasu-hIL-15 K11S/D30N (other)
chain 1: [about 120 residues with changes left out here]
chain 2: HHHHHHHHGGGGSGSGGEVQLVESGGGLVKPGGSLELSCAASGFTFSSYWMSWVRQAPEKGLEWVAAISPSGGSTYYADSVKGRFTISRDNAKNTLFLQMTSLRSEDTAMYYCAKESWGAYYDLWGQGTTVTVSSASTKGPSVFPLAPCSRSTSESTAALGCLVKDYFPEPVTVSWNSGALTSGVHTFPAVLQSSGLYSLSSVVTVPSSNFGTQTYTCNVDHKPSNTKVDKTVERKCRVRCPRCPAPPVAGPSVFLFPPKPKDTLMISRTPEVTCVVVAVSHEDPEVQFNWYVDGVEVHNAKTKPREEQFNSTFRVVSVLTVVHQDWLNGKEYKCKVSNKGLPSSIEKTISKTKGQPREPQVYTLPPSREEMTKNQVSLTCLVKGFYPSDIAVEWESNGQPENNYKTTPPMLDSDGSFFLYSRLTVDKSRWQQGNVFSCSVMHEALHNHYTQKSLSLSPGK
chain 3: DIVMTQSPSSLSVSAGDKVTMSCRASQGISSWLAWYQQKPWQPPKLLIYKASTLESGVPDRFTGSGSGTDFTLTISSVQAEDLAVYYCQQSYSTPWTFGGGTKLEIKGTVAAPSVFIFPPSDEQLKSGTASVVCLLNNFYPREAKVQWKVDNALQSGNSQESVTEQDSKDSTYSLSSTLTLSKADYEKHKVYACEVTHQGLSSPVTKSFNRGEC
B14: xmPD1-hIL15Rasu-hIL-15 D61N/M109A (other)
chain 1: [about 120 residues with changes left out here]
chain 2: B13 chain 2
chain 3: B13 chain 3
B15: xmPD1-hIL15Rasu-hIL-15 E64Q/M109A (other)
chain 1: [about 120 residues with changes left out here]
chain 2: B13 chain 2
chain 3: B13 chain 3
B16: xmPD1-hIL15Rasu-hIL-15 D61N (other)
chain 1: [about 120 residues with changes left out here]
chain 2: B13 chain 2
chain 3: B13 chain 3
B17: xmPD1-hIL15Rasu-hIL-15 K11S/M109A (other)
chain 1: [about 120 residues with changes left out here]
chain 2: B13 chain 2
chain 3: B13 chain 3
B18: xmPD1-hIL15Rasu-hIL-15 D61N/D30N (other)
chain 1: [about 120 residues with changes left out here]
chain 2: B13 chain 2
chain 3: B13 chain 3

One experiment deals with T4, human IL-15Rα (human, UniProt Q13261 31-205, limits assumed).
T4 construct: also called hIL-15Rα; IL-15 receptor alpha
The experiment is described as follows: SPR, kinetic fit.
Consider B1, for which the Kd amounted to 1.34 nM, the koff is 0.00277 s⁻¹, the kon was 2.06e+06 M⁻¹ s⁻¹ and the t1/2 amounted to 4.17 min.
B2 yielded a Kd of 1.86 nM, a koff of 0.00385 s⁻¹, a kon of 2.07e+06 M⁻¹ s⁻¹ and a t1/2 of 3 min.
B3 registered a dissociation constant (Kd) of 8.17 nM, a koff of 0.0128 s⁻¹, a kon of 1.56e+06 M⁻¹ s⁻¹ and a t1/2 of 0.91 min.
Molecule B4 yielded a Kd of 4.32 nM, a koff of 0.00733 s⁻¹, a kon of 1.69e+06 M⁻¹ s⁻¹ and a t1/2 of 1.58 min.
For B5 the same measures were 0.874 nM, 0.00111 s⁻¹, 1.27e+06 M⁻¹ s⁻¹ and 10.4 min.

A further experiment deals with T1, human IL-2Rβ. The experiment is described as follows: SPR, steady state. (SPR reads the build-up and loss of mass on a sensor chip optically.)
B6 gave a Kd of 141 nM.
Regarding B7, binding was put at a Kd of 57.9 nM.
In turn, B8 registered a Kd of 86.6 nM.
The molecule B9 showed a Kd of 87 nM.
Molecule B10 registered a Kd of 75.7 nM.

The target of another experiment is T4, human IL-15Rα. The experiment in a line: SPR, steady state.
T4 sequence (Q13261 31-205 limits assumed): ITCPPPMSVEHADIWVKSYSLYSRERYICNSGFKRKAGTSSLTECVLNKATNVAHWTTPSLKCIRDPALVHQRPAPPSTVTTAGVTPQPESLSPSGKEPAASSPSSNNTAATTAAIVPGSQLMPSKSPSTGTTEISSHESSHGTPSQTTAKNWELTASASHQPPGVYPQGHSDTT
The molecule B6 came in with a Kd of 267 nM. That is a sub-micromolar value.
Still for that read-out and setting: next, B11: 28.5 nM; B7: 96.8 nM.
Molecule B8 displayed a Kd of 241 nM.
Regarding B9, the Kd stood at 10.9 nM.
B12 registered a Kd of 43.4 nM. This Kd is about 4-fold higher than that of the molecule before.
In turn, B10 yielded a Kd of 146 nM.

Another experiment has as its target T2, IL-15 signaling receptor on …. The experiment in a line: cell-based or functional assay.
For B13, the “pSTAT5 EC50 on PD-1(low) 32D reporter cells” value amounted to 18.8 nM.
The same measure, in the same setting: the value for B14 was 12.9 nM; that for B15 was 10.1 nM; that for B16 was 6.91 nM.
For B17, the “pSTAT5 EC50 on PD-1(low) 32D reporter cells” value was 3.13 nM.
Take B18: the “pSTAT5 EC50 on PD-1(low) 32D reporter cells” value came to 22 nM.

A further experiment deals with T3, mouse PD-1 on doxycycline-induced …. The experiment is described as follows: cell-based or functional assay.
Take B13: the “Fold change = EC50 (PD-1(low))/EC50 (PD-1+)” value (“Fold change = EC50” below) worked out at 44 fold and the “pSTAT5 EC50 on PD-1+ 32D reporter cells” value was 0.42 nM.
For the molecule B14, the “Fold change = EC50” value is 193 fold and the “pSTAT5 EC50 on PD-1+ 32D reporter cells” value is 70 pM.
For the molecule B15, the “Fold change = EC50” value worked out at 163 fold and the “pSTAT5 EC50 on PD-1+ 32D reporter cells” value came out at 60 pM.
For B16, the “Fold change = EC50” value came out at 18 fold and the “pSTAT5 EC50 on PD-1+ 32D reporter cells” value is 0.38 nM.
For the molecule B17, the “Fold change = EC50” value was 19 fold and the “pSTAT5 EC50 on PD-1+ 32D reporter cells” value is 0.16 nM.
As for B18, the “Fold change = EC50” value is 139 fold and the “pSTAT5 EC50 on PD-1+ 32D reporter cells” value amounted to 0.16 nM.

Usually Kd stands for the free concentration of one partner at which half of the binding sites on the other are occupied at equilibrium, for simple one-to-one binding. A lower Kd goes with a tighter complex. One may read the koff as the first-order rate constant of dissociation. Read a low koff as a long-lived complex. What is called kon is a measure of how fast the partners come together.

The values above are taken from patent US20210324028A1 (Pfizer, published 2021).
